The sequences are guide strands of siRNAs; only the seed at positions 2 to 7 varies.
Tests used:
GL261 = experiment: cell viability relative to siNT1 (ATP content); H4 human neuroglioma and GL261 mouse glioma; higher = less toxic; details: siRNA concentration 25 nM; 96 h; mouse
H4 = experiment: as above; details: siRNA concentration 10 nM; 96 h; human
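Note: cells reverse transfected with siRNA duplexes via lipid reagent, ATP read by luminescence, triplicate wells, values scaled to mean viability with non-targeting control siNT1.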

| Sequence | cell viability (GL261) | cell viability (H4) |
| --- | --- | --- |
| UGCUGACACAUGUAAACCA | 25.5% | 27.7% |
| UGCUGAGACAUGUAAACCA | 36.7% | 66.3% |
| UGCUGAUACAUGUAAACCA | 14% | 48.4% |
| UGCUGCAACAUGUAAACCA | 13.2% | 62.8% |
| UGCUGCCACAUGUAAACCA | 17.4% | 15.4% |
| UGCUGCGACAUGUAAACCA | 21.4% | 60.6% |
| UGCUGCUACAUGUAAACCA | 16.1% | 47.1% |
| UGCUGGAACAUGUAAACCA | 27.3% | 71.7% |
| UGCUGGCACAUGUAAACCA | 17.4% | 7.94% |
| UGCUGGGACAUGUAAACCA | 14.7% | 4.8% |
| UGCUGGUACAUGUAAACCA | 15% | 59.4% |
| UGCUGUAACAUGUAAACCA | 32.1% | 111% |
| UGCUGUCACAUGUAAACCA | 22.5% | 47.3% |
| UGCUGUGACAUGUAAACCA | 15.2% | 81.1% |
| UGCUGUUACAUGUAAACCA | 17.4% | 56.8% |
| UGCUUAAACAUGUAAACCA | 60.3% | 98% |
| UGCUUACACAUGUAAACCA | 51.3% | 70.8% |
| UGCUUAGACAUGUAAACCA | 56.1% | 61.7% |
| UGCUUAUACAUGUAAACCA | 68.1% | 88.2% |
| UGCUUCAACAUGUAAACCA | 26.8% | 75.4% |
| UGCUUCCACAUGUAAACCA | 8.93% | 32.5% |
| UGCUUCGACAUGUAAACCA | 23.2% | 77.6% |

| Sequence | cell viability (GL261) | cell viability (H4) |
| --- | --- | --- |
| UGCUUCUACAUGUAAACCA | 10.5% | 64.2% |
| UGCUUGAACAUGUAAACCA | 32% | 76% |
| UGCUUGCACAUGUAAACCA | 25.6% | 22.6% |
| UGCUUGGACAUGUAAACCA | 25.8% | 35.6% |
| UGCUUGUACAUGUAAACCA | 21.3% | 57% |
| UGCUUUAACAUGUAAACCA | 31.9% | 113% |
| UGCUUUCACAUGUAAACCA | 18.4% | 24.6% |
| UGCUUUGACAUGUAAACCA | 24.6% | 57.8% |
| UGCUUUUACAUGUAAACCA | 18.9% | 35% |
| UGGAAAAACAUGUAAACCA | 82.5% | 117% |
| UGGAAACACAUGUAAACCA | 39.7% | 60.4% |
| UGGAAAGACAUGUAAACCA | 65.1% | 64.4% |
| UGGAAAUACAUGUAAACCA | 34.9% | 76.2% |
| UGGAACAACAUGUAAACCA | 38.4% | 78.2% |
| UGGAACCACAUGUAAACCA | 22.1% | 33% |
| UGGAACGACAUGUAAACCA | 47.1% | 101% |
| UGGAACUACAUGUAAACCA | 30.8% | 70.9% |
| UGGAAGAACAUGUAAACCA | 43.3% | 72.6% |
| UGGAAGCACAUGUAAACCA | 9.98% | 43% |
| UGGAAGGACAUGUAAACCA | 14.4% | 13.2% |
| UGGAAGUACAUGUAAACCA | 16.5% | 39.4% |
| UGGAAUAACAUGUAAACCA | 69.1% | 97.2% |

| Sequence | cell viability (GL261) | cell viability (H4) |
| --- | --- | --- |
| UGGAAUCACAUGUAAACCA | 22.4% | 43.5% |
| UGGAAUGACAUGUAAACCA | 42.9% | 70.8% |
| UGGAAUUACAUGUAAACCA | 57.8% | 75.7% |
| UGGACAAACAUGUAAACCA | 17.7% | 69.3% |
| UGGACACACAUGUAAACCA | 29.1% | 43.7% |
| UGGACAGACAUGUAAACCA | 11% | 58.4% |
| UGGACAUACAUGUAAACCA | 23.3% | 52.5% |
| UGGACCAACAUGUAAACCA | 30.6% | 79.5% |
| UGGACCCACAUGUAAACCA | 26.1% | 42.8% |
| UGGACCGACAUGUAAACCA | 22.6% | 68% |
| UGGACCUACAUGUAAACCA | 27.5% | 69.7% |
| UGGACGAACAUGUAAACCA | 34.7% | 57.3% |
| UGGACGCACAUGUAAACCA | 38.9% | 43.8% |
| UGGACGGACAUGUAAACCA | 18.3% | 44.1% |
| UGGACGUACAUGUAAACCA | 25.1% | 47.3% |
| UGGACUAACAUGUAAACCA | 53.2% | 77.7% |
| UGGACUCACAUGUAAACCA | 14.5% | 65.6% |
| UGGACUGACAUGUAAACCA | 25% | 61.9% |
| UGGACUUACAUGUAAACCA | 26% | 67.4% |
| UGGAGAAACAUGUAAACCA | 57.9% | 84.2% |
| UGGAGACACAUGUAAACCA | 29.4% | 29.5% |
| UGGAGAGACAUGUAAACCA | 37.4% | 41.7% |

| Sequence | cell viability (GL261) | cell viability (H4) |
| --- | --- | --- |
| UGGAGAUACAUGUAAACCA | 26.6% | 27.5% |
| UGGAGCAACAUGUAAACCA | 26.3% | 14% |
| UGGAGCCACAUGUAAACCA | 8.37% | 17.7% |
| UGGAGCGACAUGUAAACCA | 25.5% | 16.7% |
| UGGAGCUACAUGUAAACCA | 14.4% | 16.8% |
| UGGAGGAACAUGUAAACCA | 22.6% | 29.1% |
| UGGAGGCACAUGUAAACCA | 8.55% | 20.6% |
| UGGAGGGACAUGUAAACCA | 11.3% | 6.12% |
| UGGAGGUACAUGUAAACCA | 10.9% | 16.1% |
| UGGAGUAACAUGUAAACCA | 52.7% | 93% |
| UGGAGUCACAUGUAAACCA | 13.9% | 52.5% |
| UGGAGUGACAUGUAAACCA | 25% | 57.6% |
| UGGAGUUACAUGUAAACCA | 18.8% | 60.4% |
| UGGAUAAACAUGUAAACCA | 77.7% | 101% |
| UGGAUACACAUGUAAACCA | 39.8% | 117% |
| UGGAUAGACAUGUAAACCA | 28.6% | 77.4% |
| UGGAUAUACAUGUAAACCA | 33.9% | 105% |
| UGGAUCAACAUGUAAACCA | 30.7% | 55% |
| UGGAUCCACAUGUAAACCA | 17.3% | 37.7% |
| UGGAUCGACAUGUAAACCA | 41.3% | 80.7% |
